# Laboratory results as given in patent US20240115549A1, “TREATMENT OF MENTAL DISORDERS” (GH Research Ireland Limited, priority 2022, published 2024).
# Experiment: LC-MS/MS of 5-MeO-DMT, bufotenine and 5-MIAA in breastmilk, serum and urine of a treated PPD patient; infant dose estimates
# Details: 5 kg infant, three feeds of 250 ml
compound,measurement,value
COc1ccc2[nH]cc(CCN(C)C)c2c1 [5-MeO-DMT],"Total exposure of the infant (Daily Infant Dosage, DID)",692425 pg 5-MeO-DMT/day
